Data as given in the supplement of paper PMC3724861.
The list shows a part of the results.

Tested on: T1, Caupolican (Caup) homeodomain DNA-binding domain
T1 sequence: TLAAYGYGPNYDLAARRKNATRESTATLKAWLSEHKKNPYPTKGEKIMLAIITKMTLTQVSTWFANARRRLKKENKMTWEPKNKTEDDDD
Test: PBM E-score (8-mer, recovered from the published 9-mer minima) (E-score (dimensionless, -0.5 to 0.5)); Drosophila protein; higher = stronger relative binding preference, active = 0.31 or more
How it was run: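 An enrichment score, with higher meaning stronger, expresses relative binding preference for each short DNA word. The protein used was Caup's homeodomain DNA-binding domain (residues 214-303), produced by in vitro transcription and translation and tested at 100 nM on custom-designed protein binding microarrays. The 8-mer values were recovered from published 9-mer scores, each equal to the lower of its two constituent 8-mer scores.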

Sequence	PBM E-score
CTAGCCAC	inactive: -0.151
CCATGAAA	inactive: 0.00449
GCGTTGTA	inactive: 0.249
CTTAGCTA	inactive: 0.0209
ACGCCTCG	inactive: -0.144
CTTCTCTC	inactive: -0.0737
ATCACCAG	inactive: 0.0151
GGTAGTCA	inactive: 0.0126
ACTGAAAA	inactive: -0.0487
CGCGGATA	inactive: 0.00665
ACGAACGC	inactive: -0.0517
ACGTTAGG	inactive: -0.057
TAAAGAAA	inactive: 0.0618
AGCTACGC	inactive: -0.0814
ACATGGGT	inactive: 0.284
TCATAGGA	inactive: 0.114
AAGGATAG	inactive: 0.012
CTGACCGC	inactive: -0.184
GGAACTCA	inactive: -0.0653
AGTAGCAC	inactive: -0.0118
TCATGGAA	inactive: 0.0375
ACAAGGGT	inactive: 0.214
ATCGTGTG	inactive: 0.149

Sequence	PBM E-score
CTGTTGAA	inactive: 0.154
CTTTCCTA	inactive: -0.094
AGGTTGGA	inactive: -0.0253
CAACGTTC	inactive: -0.0881
ATTTCACC	inactive: 0.0435
GTACAAAA	active: 0.323
TACCCCGA	inactive: -0.11
ACTCAAGG	inactive: -0.115
AGAAGTAG	inactive: 0.0359
CAGTTGTA	inactive: 0.214
CGTCAATC	inactive: 0.0893
ATATCCCA	inactive: -0.0219
ACAGGCCA	inactive: -0.0578
ACTTTAAC	inactive: 0.0453
ATTTTGGC	inactive: 0.0116
AGCGGAGA	inactive: -0.0915
CCCTAAGG	inactive: -0.161
AGTGTAAG	inactive: 0.215
ACAAGGGC	inactive: 0.147
CGCGGAAC	inactive: -0.118
ACAGCCAA	inactive: 0.00118
GGCGACAA	inactive: 0.138
CAGGGCGC	inactive: -0.179

Sequence	PBM E-score
GATTGCGC	inactive: -0.0393
TCAGTCAA	inactive: 0.0873
CCCGTGAC	inactive: -0.122
AATCTCCT	inactive: -0.00874
GGGGACCC	inactive: -0.384
AGGCGACG	inactive: -0.203
ATGGAGAG	inactive: -0.0433
CGAGGCCA	inactive: -0.0938
CATAGCTA	inactive: -0.0309
ACTATATC	inactive: 0.189
GTCGGATA	inactive: 0.146
CTAAAAAA	inactive: 0.0517
ATGCAAAT	inactive: 0.168
ATGAGTGC	inactive: -0.0461
GATTTTAA	inactive: 0.0492
ACAACAGG	inactive: 0.192
ATTCATAC	inactive: 0.128
AACCATCA	inactive: 0.0883
GGCTGGCA	inactive: -0.238
AGAGAAGC	inactive: -0.0129
AGTACTAC	inactive: 0.268
GCTCTACA	inactive: 0.0637
CTTATCAA	inactive: 0.108

Sequence	PBM E-score
CTCTTATC	inactive: 0.083
CAAGGTAA	inactive: 0.125
AAAATCAG	inactive: 0.119
ATATTCAT	≥ 0.172
CATACCGG	inactive: -0.0711
ATGCCTTC	inactive: -0.136
AGGGAGCG	inactive: -0.207
AGCGGTTA	inactive: -0.0759
CCATCTCG	inactive: -0.151
CTGGTGTA	inactive: 0.166
ACGATTGG	inactive: -0.0267
ATGTAAAA	active: 0.354
CCTTTCCC	inactive: -0.174
ACACCTAC	inactive: 0.187
AAAGATCA	inactive: 0.00037
ACCGACCA	≥ -0.00916
ATCAAGGA	inactive: -0.00179
CCGTTGAC	inactive: -0.0215
ACCGTCTC	inactive: -0.0897
ACTTCAAG	inactive: 0.106
ACTGTCTA	inactive: 0.0904
ACGTATGG	inactive: 0.0469
GAGCGAGC	inactive: -0.196

Sequence	PBM E-score
ATACGATG	inactive: 0.15
AGGGCAAG	inactive: -0.036
GCTTCGCA	inactive: -0.116
AACAGGGG	inactive: 0.0757
ACGAAAAT	≥ 0.138
AAAAATTT	inactive: 0.0755
GCAAAGAA	inactive: -0.0885
ATGAACAC	active: 0.332
CAAACCGA	inactive: 0.0751
GTGAAGGA	inactive: -0.0495
CACAGCCC	inactive: -0.2
AATGCATA	inactive: 0.0394
AATAAAGA	inactive: 0.0782
ACAATAGG	inactive: 0.0633
ACCAGAGG	inactive: -0.103
AGTTAGCA	inactive: 0.108
ACTATACG	inactive: 0.0859
ATAGGCAC	inactive: -0.142
AGCGGTAA	inactive: 0.0469
ATAGTCTG	inactive: 0.0481
